Measured values reported in PubChem BioAssay (NCATS).
Values joined by “and” are separate entries in the source; they are usually repeats but may differ in a detail not shown here. Equal entries are not always repeated. The inconclusive results got no clear call from the source; some entries with a clear call stand among them for comparison. Where the call is inconclusive, the potency comes from a doubtful curve fit. Active and inactive are the calls of the source. Calls come from the whole dose curve; as a rule, active = well fitted curve in the direction sought with a large enough effect; inconclusive = small, poorly fitted or top-dose-only effect, or another doubt; inactive = no such curve, though single readings can be large; an effect the other way counts as inactive or inconclusive.

Key:
[1] = NS1 protein of Zika virus - qHTS assay to identify small molecule inhibitors in human HEK 293 cells (AID 1347053); note: nearly all actives have a fitted effect of over 55% in size
Method in brief: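 In this cell-based screen, HEK 293 cultures received compound for one hour before Zika MR766 at MOI = 0.5. NS1 was quantified 24 hours later by TR-FRET, normalized to virus-free wells and infected wells.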

[2] = qHTS of pediatric cancer cell lines to identify multiple opportunities for drug repurposing: Primary screen for DAOY cells (AID 1347090); conditions: DAOY medulloblastoma viability, CellTiter-Glo luminescence, 48 h; series mostly up to 46 µM; note: nearly all actives have a fitted effect of over 55% in size
Method in brief: (§1)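 Viability measured as metabolically active cells via CellTiter-Glo luminescence following 48 hours of compound exposure, 11-point dilutions in confirmatory testing. 500-1,000 cells/well plated 5 hours before dosing; controls were DMSO and 2.3 µM bortezomib.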

[3] = qHTS of pediatric cancer cell lines to identify multiple opportunities for drug repurposing: Primary screen for SJ-GBM2 cells (AID 1347091)
Method in brief: as §1

[4] = qHTS of pediatric cancer cell lines to identify multiple opportunities for drug repurposing: Primary screen for TC32 cells (AID 1347089); note: nearly all actives have a fitted effect of over 60% in size
Method in brief: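 qHTS, TC32, 48 h drug treatment, CellTiter-Glo luminescence as a proxy for metabolically active cells; primary top concentration 46 µM (MIPE 11-pt, NPC 8-pt); confirmatory 11-pt.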
Potency is the fitted concentration of half-maximal effect; tags give direction and shape of the fitted curve.

Compound	Potency [1]	Potency [2]	Potency [3]	Potency [4]
CC=CC[C@@H](C)C(=O)[C@H]1C(=O)N[C@@H](C(C)C)C(=O)N(C)CC(=O)N(C)[C@@H](CC(C)C)C(=O)N[C@@H](C(C)C)C(=O)N(C)[C@@H](CC(C)C)C(=O)N[C@@H](C)C(=O)N[C@H](C)C(=O)N(C)[C@@H](CC(C)C)C(=O)N(C)[C@@H](CC(C)C)C(=O)N(C)[C@@H](C(C)C)C(=O)N1C	inactive	inconclusive: 23.5 µM [cytotoxic, single point]	–	–
N=C1N=C(N)c2cc3ccccc3cc21	inconclusive: 50.1 µM [inhibitor, single point]	active: 24.3 µM	active: 24.3 µM	–
CN(c1ncccc1CNc1nc(Nc2ccc3c(c2)CC(=O)N3)ncc1C(F)(F)F)S(C)(=O)=O	active: 11.8 µM	active: 18.7 µM	–	–
Cc1cc(O)c2ccccc2c1O	inconclusive: 35.5 µM [inhibitor, single point]	inconclusive: 33.5 µM [cytotoxic, single point]	inconclusive: 29.9 µM [cytotoxic, single point]	–
C[C@H](NC(=O)c1sccc1OCc1ccc(Cl)cc1)c1ccccc1	inconclusive: 37.2 µM [inhibitor, single point]	active: 18.7 µM	–	–
[O-][n+]1ccccc1SSc1cccc[n+]1[O-]	inconclusive: 3.16 µM [inhibitor, full curve, poor fit]	active: 0.0731 µM	inconclusive: 11.6 µM [cytotoxic, single point]	active: 0.325 µM
CNCC[C@H](Oc1cccc2ccccc12)c1cccs1	inconclusive: 35.5 µM [inhibitor, single point] and inconclusive: 33.2 µM [inhibitor, single point]	–	inconclusive: 21.1 µM [cytotoxic, single point]	inconclusive: 8.36 µM [cytotoxic, partial curve, poor fit]
O=C1CCc2ccc(OCCCCN3CCN(c4cccc(Cl)c4Cl)CC3)cc2N1	inconclusive: 25.1 µM [inhibitor, single point] and inconclusive: 37.2 µM [inhibitor, single point]	–	inconclusive: 20.9 µM [cytotoxic, partial curve]	inconclusive: 33.3 µM [cytotoxic, single point]
C=CC(=O)Nc1cc2c(Nc3ccc(F)c(Cl)c3)ncnc2cc1C#CC(C)(C)N1CCN(C)CC1	active: 13.2 µM	active: 5.9 µM	–	–
O=C(C=Cc1ccc(O)cc1)c1ccc(O)cc1O	inconclusive: 37.2 µM [inhibitor, partial curve, poor fit]	inconclusive: 29.6 µM [cytotoxic, single point]	inconclusive: 26.4 µM [cytotoxic, partial curve, poor fit]	–
CS(=O)(=O)N(Cc1ccco1)CC(O)Cn1c2ccccc2c2ccccc21 (stereo not drawn)	inconclusive: 37.2 µM [inhibitor, single point]	–	inconclusive: 18.7 µM [cytotoxic, partial curve]	inconclusive: 14.7 µM [cytotoxic, partial curve]
NC(CO)(CO)CCc1ccc(Sc2cccc(OCc3ccccc3)c2)cc1Cl	active: 9.35 µM	–	active: 18.7 µM	inconclusive: 37 µM [cytotoxic, partial curve, poor fit]
